Sequences with one replicate were seen in a single cluster, so their values are uncertain.
System: ATP
Assay: switch fluorescence ratio, 500 uM ATP over buffer (Cy3 cluster intensity, sum of 5 cycles each) (fold (ratio)); higher = stronger signal-on switching upon ATP binding; sequences stand for … in TCGTCGGCAGCGTCAGATGTGTATAAGAGACAGTTTTTTTTTTTTTTTTTTTTTTTTT…TC
Settings: aptamer strand: ATP DNA aptamer (quencher-CACCTGGGGGAGTATTGCGGAGGAAGG + anchor), 100 nM annealed; ATP concentration: 500 uM; one replicate
Summary of the method: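 Cy3-labelled switching-strand clusters on a modified Illumina MiSeq flow-cell were annealed to 100 nM quencher-labelled ATP aptamer, imaged in selection buffer, then imaged after 15 min with 500 uM ATP at 22 °C. Five buffer/ATP cycles ran, with NaOH stripping and re-annealing between them. The fluorescence ratio is summed target-cycle over summed buffer-cycle Cy3 intensity per cluster, averaged per switch-domain sequence. Clusters outside 100-1000 RFU were excluded.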
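Also: ATP exposure 15 min at 22 °C before imaging.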

Sequence | switch fluorescence ratio
CCTGATGTT | 1.03
CGGCCATAGG | 1.31
ATATGTCCCC | 1.04
CACGGTAGGA | 1.07
GAGAATAATT | 0.962
TCGCGCGAAA | 1.05
GCGACTGTA | 1.02
CAAGTTGAAT | 1.01
TACAGTTGAG | 0.958
TAGTTGTTAC | 0.995
GGCGCAAGGG | 1.28
CCTCTGCTCG | 3.45
GTGCGGGGTG | 0.995
TGACCTAAGG | 0.993
TTTCCTAA | 0.986
TCGACCCGGT | 1.02
TGTGATCGTT | 0.995
AGATTATGCG | 1
TGATATCATA | 1.07
TTAGGCACCC | 1.07
ACTTCACCGG | 2.04
GAATATATTA | 1.04
GAAGAGTATG | 0.938
ATCTCACACA | 0.968
TTGACGCGGG | 0.997
ATCCATGGGC | 1.02

Sequence | switch fluorescence ratio
CCAGATGGCT | 1.03
CTGGCGGCTG | 0.97
ACAGGACGCT | 1.05
CCCCGTCGCC | 1.08
CTGAAACGGA | 1.07
GTTTATAACA | 0.995
GAATCGTGTA | 0.96
TTAGTGAGCA | 0.982
GGCGCTTGTG | 0.973
TGCTAGTCAT | 1
TAAGGGAAGA | 1.05
GTAATGGCAG | 1.03
AGGGGAACAT | 1.03
GCCGACGCCG | 1.22
ATTGTTGGGC | 0.984
TAGAATCGCC | 1.03
ACGCGCATC | 3.77
CGTAGTAGTT | 0.987
GTGGCTTGGT | 1.06
ACAAGGCATC | 1.02
AGGTCGCTCT | 0.974
CCAAAAAAGT | 1
TGCTCCGTTC | 3.52
ACACCCATAT | 1.11
TAAAATAGG | 0.965
TCGATGCGGC | 1.21

Sequence | switch fluorescence ratio
AACCTATCGA | 1.03
TCTTATTCT | 1.01
ATGCCAGCGA | 1.04
GAAAAAGGGT | 1.01
TTGCATGTAT | 0.99
TCGAGTCT | 1.01
AAATTTATCG | 0.999
CGCACTCAAA | 1.13
AAAGGAACGT | 1.06
CATGGAAGCT | 1.08
ACGCGGCTGG | 1.02
AGCGGCGTTT | 0.994
CCTAATCATA | 0.999
CAATGTTAT | 0.997
AGGCTTCAC | 1.02
CTATGGGCGA | 0.993
GGCCACCGCG | 1.03
CTGGACGTTG | 1.03
TCAACAGATA | 0.998
GGAAAGACAT | 1.03
CTCTAGAGAC | 2.32
TACACAGTG | 0.989
TAGAACGTTC | 0.96
GCTAAAAGG | 1.02
GGTATTGGTG | 0.972
TCGTTGTCAC | 0.955

Sequence | switch fluorescence ratio
TTAAACGGAT | 1.01
GATGGATTGC | 1.04
TTCGCGGCGC | 0.995
GTCTAGCATG | 1
ATCAGCGATA | 1.18
CTAGTTATTT | 0.986
ATTACTGACG | 1.02
ATTCTCATTT | 1.02
CAAATATCAA | 1.04
TGCGCGCTCA | 1
ACCGAGCGTT | 1.11
CGACAAATT | 1.06
CAGGCAAACC | 1.09
CAGGATATCG | 0.986
TGGCGTGACC | 0.989
GTTAAATGAA | 1.02
CTGATCATAG | 0.984
TCAGTACTAT | 1.03
GACGTTGTAA | 1.04
AGACCCAAGG | 1.03
ACCGTTTTCC | 1.22
GGAATGGGGG | 0.954
TATTTGTG | 0.985
GTTTGACAC | 0.999
AATCAACAGT | 1.01
AAGTTACACT | 0.994

Sequence | switch fluorescence ratio
AGTGGAGGTT | 0.973
CCGAGCGGGG | 1.5
TTAGATATGT | 1.05
CTTGGCAGTG | 0.984
AGCCCGGTCG | 0.959
ACGTGGAATT | 0.982
TGTAAAGAGG | 0.999
GACAGTTATC | 1.04
AAGGGTACGT | 1.04
GTGTAACTTT | 0.986
ACTAATGGCG | 1.07
GATATGCGGT | 0.995
TCTGGTAATA | 1.06
CGGGAGTCTA | 1.09
TAAGATCTCA | 1.02
TAGAAGTAAG | 1
ACTGTGACAC | 1.08
CTTCTTATCA | 0.962
ACTATTTTCA | 1.04
CCGCTGGAGT | 1.29
TGTTCGACTG | 0.926
GGAGTAGGCG | 1.04
TTATCTTTGG | 0.983
CTAATGTTTC | 0.951
AGGGGCGTGT | 0.95
GCCCGATCAG | 0.978

Sequence | switch fluorescence ratio
ATGCAGTAAC | 1.18
CGGCTTAATT | 0.945
CATTACCGTT | 1.02
ACCGAGCATT | 2.08
TTCGCTCGGG | 0.998
TTATTGCTGG | 0.972
CGCGTCGTCC | 1.03
CTACTGAAAA | 1.17
TGGAAACATC | 1.04
ATTCCATTGC | 1.04
TGTCATCTTT | 0.991
TGAGTGTAT | 1.01
TTAAGTTCC | 1.03
TGACAGTATT | 1.06
AGTATGTTTG | 0.951
ACTTCCCTAA | 1.05
CTCCGGGGAG | 1.17
CGTTATAACT | 0.947
TACTTAATTT | 1.06
GGCAGTTATC | 1.05
CCGGCATGGG | 1.12
ACTCTGGACC | 1.12
TTGTGATGCC | 1.02
GAGTAATGGA | 1.02
AATCGAACT | 1.01
TTGTTTAGTA | 1.04

Sequence | switch fluorescence ratio
GTCGACCTGT | 1.02
AGGATGTA | 0.972
AATCCGGATG | 0.974
TGATCGCGCT | 1.02
CCATATGGGT | 1.04
CGTCGCGGA | 0.949
CAAGCCAAAC | 1.38
CAATTTAA | 1.09
CAAGAGAGTG | 1.01
GGGCAGTTAT | 1.01
GGTTAGACCA | 1.06
TAGATGCCT | 0.994
TCGCGGACGT | 1.05
ACGGTGGGAT | 0.989
AGAGTGGTTG | 1.01
GGATGTCAAA | 0.975
GACTTGGAAC | 0.993
CACAACGTTT | 1.01
CTGAGTAGT | 1.01
GTAAAAACAT | 1.03
AAGTGATGTT | 1.04
GTTTGGAGAC | 1.01
GTTTAATGTG | 0.994
TGATTTGATA | 1.01
CAATCAATTA | 1.03
AACTCGCG | 0.996

Sequence | switch fluorescence ratio
CATCTGTTAC | 2.46
TATCGGGGG | 1
GATAATCGCG | 0.948
CTGAGGGGG | 1.01
ACTAGCACTG | 1.08
ACTGAGCATT | 1.18
CACTCTATGT | 1.05
GGTTCGCCGA | 1.03
AAACGAAAG | 1.03
GCAGCAAGTT | 1.74
CTTTGGTAGC | 1.01
ATTCAGGATT | 0.994
TTATCTCTTT | 0.991
ACAGTACTCG | 1.35
GCGGCTTCAT | 0.994
TCCATATGTA | 0.993
AGGTGAGCTA | 1.01
GTTTGCACCT | 1.09
TTAGTCGGGC | 0.985

— the supplement of paper PMC10126150
